# From PMC4336329 (PLoS ONE, 2015)
# The whole screen tested about 310,000 compounds, of which about 14,000 (4.5%) showed an effect of 50% or more. Effects have a minus sign here. The list shows a part of the results.
# Target: human ether-à-go-go-related gene (hERG) potassium channel (human, UniProt Q12809)
# Assay: primary screen, population patch clamp on CHO cells stably expressing hERG
# 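Further: peak tail current of the secondary pulse compared with the same well before compound.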
# Chain of human ether-à-go-go-related gene (hERG) potassium channel (Q12809 whole entry, looked up): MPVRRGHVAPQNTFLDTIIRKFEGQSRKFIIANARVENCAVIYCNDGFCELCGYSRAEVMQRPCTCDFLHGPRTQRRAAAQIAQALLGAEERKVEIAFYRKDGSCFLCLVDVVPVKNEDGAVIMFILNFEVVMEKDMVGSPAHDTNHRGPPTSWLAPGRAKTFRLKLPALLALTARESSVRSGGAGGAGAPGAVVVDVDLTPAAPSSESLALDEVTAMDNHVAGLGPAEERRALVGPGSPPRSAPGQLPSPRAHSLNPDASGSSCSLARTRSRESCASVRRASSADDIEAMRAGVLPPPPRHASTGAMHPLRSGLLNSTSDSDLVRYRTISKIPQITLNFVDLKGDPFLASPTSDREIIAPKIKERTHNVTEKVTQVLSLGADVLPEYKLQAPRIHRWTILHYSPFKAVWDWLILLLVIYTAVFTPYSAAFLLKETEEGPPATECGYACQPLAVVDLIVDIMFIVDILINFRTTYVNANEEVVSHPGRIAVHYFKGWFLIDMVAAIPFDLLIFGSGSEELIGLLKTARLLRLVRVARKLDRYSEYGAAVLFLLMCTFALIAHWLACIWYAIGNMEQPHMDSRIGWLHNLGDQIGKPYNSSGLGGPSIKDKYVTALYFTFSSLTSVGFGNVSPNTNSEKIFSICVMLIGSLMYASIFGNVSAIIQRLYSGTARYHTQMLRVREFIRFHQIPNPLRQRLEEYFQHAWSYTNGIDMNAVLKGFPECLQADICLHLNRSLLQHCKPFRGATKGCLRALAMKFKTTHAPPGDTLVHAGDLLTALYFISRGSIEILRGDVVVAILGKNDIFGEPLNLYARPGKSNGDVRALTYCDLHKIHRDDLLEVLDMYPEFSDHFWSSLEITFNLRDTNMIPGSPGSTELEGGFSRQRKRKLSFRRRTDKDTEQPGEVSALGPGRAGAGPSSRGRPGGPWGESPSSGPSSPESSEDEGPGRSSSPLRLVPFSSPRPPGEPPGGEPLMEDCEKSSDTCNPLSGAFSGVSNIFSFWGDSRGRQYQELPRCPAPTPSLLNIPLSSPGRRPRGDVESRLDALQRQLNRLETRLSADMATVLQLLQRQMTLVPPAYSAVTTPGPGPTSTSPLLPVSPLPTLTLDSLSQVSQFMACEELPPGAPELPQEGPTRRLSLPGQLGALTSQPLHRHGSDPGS
row,SMILES,"hERG current change (%, negative = inhibition) at 10uM"
1,COc1ccc(NS(=O)(=O)c2cc3c4c(c2)CCN4C(=O)CC3)cc1OC,8.8%
2,S=C(NCc1cccnc1)Nc1ccc(Cl)c(Cl)c1,-11.2%
3,CCCC(C(=O)NC1=NCCS1)c1ccccc1 (stereo not shown),17%
4,CCOC(=O)C(C)Sc1nc(-c2ccco2)cc(C(F)(F)F)c1C#N (stereo not shown),-2.07%
5,Cc1cc(Cl)ccc1NC(=O)c1ccc2c(c1)CCN2S(C)(=O)=O,9.12%
6,Cc1nnc(NC(=O)CCS(=O)(=O)c2ccccc2)s1,26.5%
7,CCN(Cc1ccccc1)C(=O)COC(=O)c1cc(S(=O)(=O)Nc2c(C)n(C)n(-c3ccccc3)c2=O)ccc1C,-74.9%
8,CCSc1cc(C)nc2ncnn12,-0.742%
9,O=S1(=O)CCOC[C@H](Cc2ccccc2)N1Cc1cccc(C(F)(F)F)c1,6.22%
10,CCOC(=O)CC(c1ccc([N+](=O)[O-])cc1)n1c(C)ccc1C (stereo not shown),-35.9%
11,COc1ccc(CNC(=O)Cn2cnc3c(=O)n(C)c(=O)n(C)c32)cc1,2.8%
12,Cc1ccc(C(=O)Nc2ccccc2C(=O)O)cc1S(=O)(=O)NCc1ccccc1,9.8%
13,CC1CCCN(c2ncnc3c2cnn3-c2ccc(Cl)cc2)C1 (stereo not shown),11.7%
14,O=C1Cc2ccccc2C(=O)N1OCc1ccc(Cl)cc1Cl,18.5%
15,Cc1ccc(C(=O)Nc2nc3ccc(Cl)cc3s2)o1,4.93%
16,NC(=O)c1ccc(Oc2ncc(C(F)(F)F)cc2Cl)cc1,-3.77%
17,CCOC(=O)c1c(C)[nH]c(C(=O)OCC(=O)NC2(C#N)CCCCC2)c1C,-15.9%
18,COc1ccc2c(CC(=O)OCC(=O)Nc3ccccc3[N+](=O)[O-])coc2c1,19.4%
19,COc1cc(S(=O)(=O)n2cnc(C)c2)ccc1Cl,2.87%
20,COc1cccc(CN(CC(=O)NC2CCCC2)C(=O)CCC(=O)Nc2cc(C)on2)c1,-7.79%
21,CCOC(=O)c1ccc(NC(=O)Cn2cnc3cc(C)c(C)cc32)cc1,11.2%
22,CCCS(=O)(=O)c1nc(S(=O)(=O)c2ccc(C)cc2)c(N2CCC(C(N)=O)CC2)s1,-18.2%
23,CC(C)(C)C(=O)NC(=S)NCc1ccccc1,1.99%
24,CC(C)=CC1C(C(=O)NCCOc2ccccc2)C1(C)C (stereo not shown),12.2%
25,O=C1NN(c2ccc(F)cc2)C(=O)/C1=C/c1cccs1,7.57%
26,C/C(=N\NC(=O)Cn1cnc2ccccc21)c1cccs1,16%
27,CC1=C/C(=C(/c2cc(C)c(O)c(Br)c2)c2ccccc2S(=O)(=O)[O-])C=C(Br)C1=O.[NH4+],14.8%
28,O=C(CC1SC(=Nc2ccc3c(c2)OCCO3)NC1=O)Nc1ccc(F)cc1F (stereo not shown),8.62%

row,SMILES,"hERG current change (%, negative = inhibition) at 10uM"
1,Cc1ccc(OCCC(=O)Nc2ccccc2C(=O)NC2CC2)cc1,-2.73%
2,COc1ccc(CCn2c(=N)c(C(=O)NCCN3CCOCC3)cc3c(=O)n4cccc(C)c4nc32)cc1OC,-97.8%
3,COCCNC(=S)N1CCCN(c2nc3cc(C)ccc3cc2C#N)CC1,-28.1%
4,NS(=O)(=O)c1ccc(N=Cc2c(O)n(-c3nccs3)c(=O)c3ccccc23)cc1,7.12%
5,CCOC(=O)c1sc(N)c(C(N)=O)c1C,8.49%
6,CC(C)(C)C1CCc2c(C(=O)NNC(=O)CCCC(=O)O)csc2C1 (stereo not shown),16.4%
7,COc1ccc(CN(C)C(=S)Nc2ccc(Cl)cc2)cc1,-20.7%
8,COc1ccc(C(c2c(O)ccc3ccccc23)N2CCOCC2)c(OC)c1 (stereo not shown),12.9%
9,O=C(NCC1CCCO1)c1ccc(NS(=O)(=O)c2cccc([N+](=O)[O-])c2)cc1 (stereo not shown),-17.2%
10,O=C(NCc1cccnc1)Nc1cc(Cl)cc(Cl)c1,-4.44%
11,C=CCNC(=S)Nc1ccccc1-c1nnc2n1CCCCC2,17.4%
12,COc1cc(C(=O)OCC(=O)NCc2ccccc2)cc(NC(=O)c2ccco2)c1OC,1.36%
13,COc1ccc(C2CC(c3ccc([N+](=O)[O-])cc3)=NN2C(C)=O)cc1 (stereo not shown),-64.5%
14,O=C(COC(=O)/C=C/c1cccs1)Nc1ccccc1Cl,15.8%
15,Cc1cc(NC(=O)CSc2nnc(NC(=O)C3CC(=O)N(c4ccccc4C)C3)s2)no1 (stereo not shown),2.51%
16,COc1cccc(NC(=O)CN(C)C(=O)c2ccc(-n3cncn3)c([N+](=O)[O-])c2)c1,-44.8%
17,O=C(O)c1ccc(Cl)c(S(=O)(=O)N2CCCCCC2)c1,-8.34%
18,CN(c1ccc(OCC(=O)OCC(=O)Nc2c(F)c(F)c(F)c(F)c2F)cc1)S(=O)(=O)c1ccc(F)cc1,8.61%
19,COc1c(C(=O)Nc2c(C)n(C)n(-c3ccccc3)c2=O)ccc2ccccc12,1.5%
20,COc1ccc(OC)c(S(=O)(=O)N2CCC(C(=O)NCc3ccccc3)CC2)c1,-9.9%
21,O=C(NCc1ccc(OC(F)(F)F)cc1)C1CC(c2cccc(F)c2)=NO1 (stereo not shown),-0.147%
22,CCCSc1nnc(CSc2nc3nc(C)cc(C)n3n2)o1,-4.91%
23,CCN(Cc1ccccc1)C(c1ccc(Cl)cc1)c1nnnn1C(C)(C)C (stereo not shown),-1.99%
24,CC(C)(C)c1ccc(C(=O)NCCCn2ccnc2)cc1.Cl,-11%
25,CC(C)(C)SCCSC1=CC(=O)CC(c2ccccc2)C1 (stereo not shown),-7.61%
26,CCOc1ccc(CC(=O)N2CCN=C2SCc2ccc([N+](=O)[O-])cc2)cc1,5.05%
27,O=C(O)C(=O)Nc1nc(-c2ccc3c(c2)OCCO3)cs1,17.1%
